From article PMC9911399, “Two distinct binding modes provide the RNA-binding protein RbFox with extraordinary sequence specificity” come the findings set out here.

Positions count from the first letter of the chain named. This is one part of the list.

The chains are these.
B1: UUCGGUU (DNA:RNA)
RNA: GGGAGACCGGAAUUCAGAUUGUCCUUCGGUUUUAAAUCCCGUCGUAGCCACCA
DNA 1: CAATCTGAATTCCGGTCTCCC
DNA 2: TGGTGGCTACGACGGGATT
B2: AUGCGCG (DNA:RNA)
RNA: B1 RNA with U25A, C27G, G28C, U30C, U31G
DNA 1: CAATCTGAATTCCGGTCTCCC
DNA 2: TGGTGGCTACGACGGGATT
B3: GCGUCAA (DNA:RNA)
RNA: GGGAGACCGGAAUUCAGAUUGUCCGCGUCAAUUAAAUCCCGUCGUAGCCACCA
DNA 1: CAATCTGAATTCCGGTCTCCC
DNA 2: TGGTGGCTACGACGGGATT
B4: CCUGGAG (DNA:RNA)
RNA: B3 RNA with G25C, G27U, U28G, C29G, A31G
DNA 1: CAATCTGAATTCCGGTCTCCC
DNA 2: TGGTGGCTACGACGGGATT
B5: UAUCAUA (DNA:RNA)
RNA: B1 RNA with U26A, C27U, G28C, G29A, U31A
DNA 1: CAATCTGAATTCCGGTCTCCC
DNA 2: TGGTGGCTACGACGGGATT
B6: CCUGCCC (DNA:RNA)
RNA: B3 RNA with G25C, G27U, U28G, A30C, A31C
DNA 1: CAATCTGAATTCCGGTCTCCC
DNA 2: TGGTGGCTACGACGGGATT
B7: UGACUGC (DNA:RNA)
RNA: B1 RNA with U26G, C27A, G28C, G29U, U30G, U31C
DNA 1: CAATCTGAATTCCGGTCTCCC
DNA 2: TGGTGGCTACGACGGGATT
B8: GACCAUU (DNA:RNA)
RNA: B1 RNA with U25G, U26A, G28C, G29A
DNA 1: CAATCTGAATTCCGGTCTCCC
DNA 2: TGGTGGCTACGACGGGATT
B9: UUAGACU (DNA:RNA)
RNA: B1 RNA with C27A, G29A, U30C
DNA 1: CAATCTGAATTCCGGTCTCCC
DNA 2: TGGTGGCTACGACGGGATT
B10: GAAUUAA (DNA:RNA)
RNA: B3 RNA with C26A, G27A, C29U
DNA 1: CAATCTGAATTCCGGTCTCCC
DNA 2: TGGTGGCTACGACGGGATT
B11: AAGGUAU (DNA:RNA)
RNA: B3 RNA with G25A, C26A, U28G, C29U, A31U
DNA 1: CAATCTGAATTCCGGTCTCCC
DNA 2: TGGTGGCTACGACGGGATT
B12: AGAGGAU (DNA:RNA)
RNA: B1 RNA with U25A, U26G, C27A, U30A
DNA 1: CAATCTGAATTCCGGTCTCCC
DNA 2: TGGTGGCTACGACGGGATT
B13: UGUAGAC (DNA:RNA)
RNA: B1 RNA with U26G, C27U, G28A, U30A, U31C
DNA 1: CAATCTGAATTCCGGTCTCCC
DNA 2: TGGTGGCTACGACGGGATT
B14: GGUAGAC (DNA:RNA)
RNA: B3 RNA with C26G, G27U, U28A, C29G, A31C
DNA 1: CAATCTGAATTCCGGTCTCCC
DNA 2: TGGTGGCTACGACGGGATT
B15: UCUGGUA (DNA:RNA)
RNA: B1 RNA with U26C, C27U, U31A
DNA 1: CAATCTGAATTCCGGTCTCCC
DNA 2: TGGTGGCTACGACGGGATT
B16: UUCCGAG (DNA:RNA)
RNA: B1 RNA with G28C, U30A, U31G
DNA 1: CAATCTGAATTCCGGTCTCCC
DNA 2: TGGTGGCTACGACGGGATT
B17: UUCACAU (DNA:RNA)
RNA: B1 RNA with G28A, G29C, U30A
DNA 1: CAATCTGAATTCCGGTCTCCC
DNA 2: TGGTGGCTACGACGGGATT
B18: CGCUCGU (DNA:RNA)
RNA: B3 RNA with G25C, C26G, G27C, A30G, A31U
DNA 1: CAATCTGAATTCCGGTCTCCC
DNA 2: TGGTGGCTACGACGGGATT
B19: UGUCAAU (DNA:RNA)
RNA: B1 RNA with U26G, C27U, G28C, G29A, U30A
DNA 1: CAATCTGAATTCCGGTCTCCC
DNA 2: TGGTGGCTACGACGGGATT
B20: CACGGCC (DNA:RNA)
RNA: B1 RNA with U25C, U26A, U30C, U31C
DNA 1: CAATCTGAATTCCGGTCTCCC
DNA 2: TGGTGGCTACGACGGGATT
B21: ACCUGUG (DNA:RNA)
RNA: B1 RNA with U25A, U26C, G28U, U31G
DNA 1: CAATCTGAATTCCGGTCTCCC
DNA 2: TGGTGGCTACGACGGGATT
B22: GUUGGCG (DNA:RNA)
RNA: B1 RNA with U25G, C27U, U30C, U31G
DNA 1: CAATCTGAATTCCGGTCTCCC
DNA 2: TGGTGGCTACGACGGGATT
B23: ACAGUAA (DNA:RNA)
RNA: B3 RNA with G25A, G27A, U28G, C29U
DNA 1: CAATCTGAATTCCGGTCTCCC
DNA 2: TGGTGGCTACGACGGGATT
B24: CUUUUGG (DNA:RNA)
RNA: B3 RNA with G25C, C26U, G27U, C29U, A30G, A31G
DNA 1: CAATCTGAATTCCGGTCTCCC
DNA 2: TGGTGGCTACGACGGGATT
B25: GACUGGU (DNA:RNA)
RNA: B1 RNA with U25G, U26A, G28U, U30G
DNA 1: CAATCTGAATTCCGGTCTCCC
DNA 2: TGGTGGCTACGACGGGATT
B26: UGCCACC (DNA:RNA)
RNA: B1 RNA with U26G, G28C, G29A, U30C, U31C
DNA 1: CAATCTGAATTCCGGTCTCCC
DNA 2: TGGTGGCTACGACGGGATT
B27: GUCCAUU (DNA:RNA)
RNA: B1 RNA with U25G, G28C, G29A
DNA 1: CAATCTGAATTCCGGTCTCCC
DNA 2: TGGTGGCTACGACGGGATT
B28: CGCUCCU (DNA:RNA)
RNA: B3 RNA with G25C, C26G, G27C, A30C, A31U
DNA 1: CAATCTGAATTCCGGTCTCCC
DNA 2: TGGTGGCTACGACGGGATT
B29: UUCCCGA (DNA:RNA)
RNA: B1 RNA with G28C, G29C, U30G, U31A
DNA 1: CAATCTGAATTCCGGTCTCCC
DNA 2: TGGTGGCTACGACGGGATT
B30: UUUUGGG (DNA:RNA)
RNA: B1 RNA with C27U, G28U, U30G, U31G
DNA 1: CAATCTGAATTCCGGTCTCCC
DNA 2: TGGTGGCTACGACGGGATT
B31: GACAUAC (DNA:RNA)
RNA: B3 RNA with C26A, G27C, U28A, C29U, A31C
DNA 1: CAATCTGAATTCCGGTCTCCC
DNA 2: TGGTGGCTACGACGGGATT

The assay concerns the target T1, RBFOX1 RRM (Homo sapiens, UniProt Q9NWB1 109-208).
T1 sequence: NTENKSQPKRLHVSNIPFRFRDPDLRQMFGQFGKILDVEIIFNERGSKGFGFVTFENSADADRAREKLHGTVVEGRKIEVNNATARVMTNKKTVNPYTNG
As to the kind of experiment: EMSA; HiTS-Eq, 1 nM pool, 10 min; buffer printed only for the single-RNA assays: 10 mM Tris pH 7.5, 150 mM NaCl, 3.4 mM EDTA, 0.001% NP-40, 30 C. As to conditions: tags: His6 N-terminal (pET28a); label: 5' 32P. In a few lines: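 Relative association constants, normalised to the cognate motif, were derived by comparing read counts of each RNA species with those of the control reaction. The RNA sequenced was the free fraction, separated by 8% native PAGE after a 10 min equilibration in 50 µL of 1 nM 5′-radiolabelled RNA (7 randomized nucleotides) with increasing concentrations of purified wild-type or mutant RbFox RRM.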
A general note: Mobility shift assays separate free from complexed probe on a gel.
Regarding B1, the binding signal was 0.0155 KA relative to UGCAUGU.

B2: the binding signal was 0.0189 KA relative to UGCAUGU.

On to B3, for which the binding signal is 0.00838 KA relative to UGCAUGU.

Regarding B4, the binding signal is 0.0155 KA relative to UGCAUGU.

B5: the binding signal was 0.00198 KA relative to UGCAUGU.

B6: the binding signal is 0.006 KA relative to UGCAUGU.

With B7, the binding signal was 0.039 KA relative to UGCAUGU.

On to B8, for which the binding signal is 0.00561 KA relative to UGCAUGU.

As to B9, the binding signal was 0.00666 KA relative to UGCAUGU.

For the molecule B10, the binding signal was 0.0029 KA relative to UGCAUGU.

Turning to B11, the binding signal is 0.00559 KA relative to UGCAUGU.

In the case of B12, the binding signal was 0.00673 KA relative to UGCAUGU.

In the case of B13, the binding signal was 0.0133 KA relative to UGCAUGU.

For B14, the binding signal is 0.0185 KA relative to UGCAUGU.

Turning to B15, the binding signal is 0.0181 KA relative to UGCAUGU.

On to B16, for which the binding signal was 0.00775 KA relative to UGCAUGU.

In the case of B17, the binding signal is 0.00205 KA relative to UGCAUGU.

In the case of B18, the binding signal was 0.0214 KA relative to UGCAUGU.

B19: the binding signal is 0.0109 KA relative to UGCAUGU.

B20: the binding signal was 0.00963 KA relative to UGCAUGU.

For B21, the binding signal was 0.00788 KA relative to UGCAUGU.

On to B22, for which the binding signal is 0.0235 KA relative to UGCAUGU.

B23: the binding signal was 0.00125 KA relative to UGCAUGU.

For B24, the binding signal is 0.0125 KA relative to UGCAUGU.

Take B25: the binding signal was 0.0245 KA relative to UGCAUGU.

Consider B26, for which the binding signal is 0.00621 KA relative to UGCAUGU.

B27: the binding signal is 0.00777 KA relative to UGCAUGU.

Consider B28, for which the binding signal is 0.00956 KA relative to UGCAUGU.

As to B29, the binding signal is 0.0157 KA relative to UGCAUGU.

With B30, the binding signal was 0.0026 KA relative to UGCAUGU.

In the case of B31, the binding signal was 0.00268 KA relative to UGCAUGU.
